Experimental data taken from PubChem BioAssay AID686978 (National Center for Advancing Translational Sciences (NCATS), 2013).
Screen size: about 420,000 compounds; about 64,000 (15%) were called active. This list was built around the results that the source calls inconclusive (neither active nor inactive); the mix of calls is not that of the screen. Calls follow the shape of the dose curve; as a rule, active = well fitted inhibition curve with a large enough effect; inconclusive = small, poorly fitted or top-dose-only effect; inactive = flat fitted curve, though single readings scatter. No potency is given beside an inconclusive call; the fits are too rough.

Experiment: qHTS for Inhibitors of human tyrosyl-DNA phosphodiesterase 1 (TDP1): qHTS in cells in absence of CPT; also: nearly all actives have a fitted effect of over 55% in size
Details: DT40 Tdp1-/- hTDP1 cells, no CPT, ATP luminescence, 48 h; activity change, negative = growth inhibition: at 46.2 µM (top of the series) unless noted
How it was run: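 Camptothecin absent (DMSO only). Human TDP1-complemented DT40 knockout cells, 400 cells/well, 37 °C for minimum 48 hr; ATP measured via CellTiter-Glo, 30 min dark incubation, luminescence.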
% is scaled to controls: 0 for no effect and ±100 for the full control effect; potency is read from the fitted curve at half-maximal effect; tags tell the direction and shape of the fitted curve.

With `CCOc1ccc(NC(=O)CN(C)C(=O)Cc2ccc3c(c2)OCCO3)cc1OCC` as the molecule, how does the activity change, negative = growth inhibition read?
The activity change, negative = growth inhibition was inconclusive: -30.7% [inhibitor].

With `O=C(CCCC(=O)N(c1ccc(F)cc1)C(C(=O)NC1CCCC1)c1ccc(O)cc1)Nc1ccccn1` (centres undefined) as the molecule, how does the Potency read?
The Potency was inconclusive [inhibitor, single point].

For `COc1ccccc1S(=O)Cc1ccc(C(=O)NCc2ccccc2Cl)o1` (centres undefined), which Potency is on record?
The Potency was inconclusive [inhibitor, partial curve, poor fit].

Which Potency does the source give for `COc1ccc(/C=N/n2cnn(Cc3ccccc3Cl)c2=S)cc1OC` here?
Its Potency is inconclusive [inhibitor, single point].

Which Potency does the source give for `O=C(/C=C/c1ccccc1)C1=C(O)C(=O)N(CCO)C1c1ccccc1[N+](=O)[O-]` (centres undefined) here?
The Potency was inconclusive [inhibitor, single point].

For `Cn1ncc2c(Sc3ccc(Cl)cc3)ncnc21`, which Potency is on record?
The Potency was inconclusive [inhibitor, single point].

Which Potency does the source give for `O=C1CC(SCc2nc3ccccc3[nH]2)C(=O)N1c1cccc(Cl)c1` (centres undefined) here?
The Potency was active: 13 µM.

Which Potency does the source give for `CC(C)Cn1c(N)c(C(=O)COC(=O)[C@H](C)NC(=O)c2ccccc2Cl)c(=O)n(C)c1=O` here?
Its Potency is “inactive”.

Which Potency does the source give for `CCC(CC)C(=O)Nc1ccc(Nc2ccccc2)cc1` here?
Its Potency is inconclusive [inhibitor, single point].

With `COc1ccc(NC(=O)C(NC(=O)/C=C\c2ccc3c(c2)OCO3)c2ccccc2)cc1` (centres undefined) as the molecule, how does the Potency read?
The Potency was inconclusive [inhibitor, single point].

Which Potency does the source give for `COC(=O)c1c(NC(=O)COC(=O)[C@@H](NS(=O)(=O)c2ccc(C)cc2)C(C)C)sc2c1CCC2` here?
The Potency was active: 23.1 µM.

With `CCN(CC)C(=O)C1=C(C)N(CCC2=CCCCC2)C(=O)C(CC(=O)NCCc2ccccn2)C1` (centres undefined) as the molecule, how does the Potency read?
Its Potency is inconclusive [inhibitor, single point].

Which Potency does the source give for `COc1ccc(NC(=O)N(Cc2cccnc2)Cc2ccccc2Cl)c(OC)c1` here?
The Potency was inconclusive [inhibitor, single point].

For `COc1ccc(C/C(=N\O)c2ccc(OC)cc2)cc1`, which Potency is on record?
The Potency was “inactive”.

Which Potency does the source give for `O=C(Nc1ccccc1N1CCOCC1)c1cc(-c2ccncc2)nc2ccccc12` here?
Its Potency is active: 11.6 µM.

For `COc1cc(CC(=O)OCC(=O)c2c[nH]c3ccccc23)cc(OC)c1OC`, which Potency is on record?
Its Potency is inconclusive [inhibitor, single point].

Which Potency does the source give for `C#CCNC(=O)C[C@@H]1C[C@@]2(C(=O)OCC)CCCC=C2N(Cc2cccc3ccccc23)C1=O` here?
The Potency was inconclusive [inhibitor, single point].

For `CC(C)Oc1ccc(NC(=O)Oc2ccccc2)cc1`, which Potency is on record?
Its Potency is “inactive”.

For `Cc1ccc(NC(=O)CN(C)C(=O)CSc2nnc(C(F)(F)F)n2C)cc1`, which Potency is on record?
The Potency was “inactive”.

With `CCOC(=O)c1ccc(NCc2ccncc2)cc1` as the molecule, how does the activity change, negative = growth inhibition read?
Its activity change, negative = growth inhibition is inconclusive: -31.5% [inhibitor].

With `CCOc1ccc(/C=C/C(=O)N(CC)CC(=O)Nc2ccc3c(c2)OCCO3)cc1OC` as the molecule, how does the Potency read?
Its Potency is “inactive”.

Which Potency does the source give for `Cc1coc2cc3oc(=O)c(CCC(=O)NCCCn4ccnc4)c(C)c3cc12` here?
The Potency was inconclusive [inhibitor, single point].

With `CCOC(=O)N1CCN(C(=O)c2ccc3c(c2)N=C(CC)c2cc(C)ccc2S3)CC1` as the molecule, how does the Potency read?
The Potency was active: 10.3 µM.

With `O=C(c1cc(S(=O)(=O)N2CCOCC2)ccc1F)N1CCN(Cc2ccccc2)CC1` as the molecule, how does the Potency read?
The Potency was inconclusive [inhibitor, single point].

With `CCN1CCN(c2cc(C)c3cc(NC(=O)CCC(=O)N4CCN(c5ccccc5OC)CC4)ccc3n2)CC1` as the molecule, how does the Potency read?
Its Potency is inconclusive [inhibitor, single point].

For `COc1ccc(-c2cn(/N=C/c3ccc(Cl)cc3Cl)c(N)n2)cc1`, which Potency is on record?
Its Potency is inconclusive [inhibitor, single point].

Which Potency does the source give for `CC(C)C1C(=O)N(Cc2cn(CCC3OCCO3)nn2)CCS(=O)(=O)N1Cc1ccc(-c2ccccc2)cc1` (centres undefined) here?
The Potency was inconclusive [inhibitor, single point].

For `Cc1ccccc1-n1ccnc1SCC(=O)NC1CCCC1`, which Potency is on record?
The Potency was inconclusive [inhibitor, single point].

With `Cc1cc(F)ccc1S(=O)(=O)Nc1ccccc1C(=O)Nc1ccccc1N1CCOCC1` as the molecule, how does the Potency read?
The Potency was inconclusive [inhibitor, single point].

With `O=C(Cn1cc([N+](=O)[O-])cn1)NCc1ccc(-n2cccn2)cc1` as the molecule, how does the Potency read?
Its Potency is “inactive”.

For `CCCCN(C(=O)c1cc2c(s1)CCC2)c1c(N)n(CCCC)c(=O)[nH]c1=O`, which Potency is on record?
Its Potency is “inactive”.

Which Potency does the source give for `O=C(CSc1c2c(nc3cc(Cl)ccc13)CCCC2)NCc1ccccc1Cl` here?
Its Potency is active: 14.6 µM.

Which Potency does the source give for `COc1ccc(C2N3CC4(C)CN2CC(c2ccccc2)(C3)C4=O)cc1OC` (centres undefined) here?
The Potency was “inactive”.

For `CN(CC(=O)Nc1ccccc1C(F)(F)F)C(=O)CCc1nc2sc3c(c2c(=O)[nH]1)CCCC3`, which Potency is on record?
Its Potency is inconclusive [inhibitor, single point].

For `COc1ccc(C2CC(=O)c3cc(-c4nc(-c5cccc([N+](=O)[O-])c5)cs4)c(=O)n(-c4ccc(OC)cc4)c3C2)cc1` (centres undefined), which Potency is on record?
Its Potency is “inactive”.

Which Potency does the source give for `CN(C)CCCN=Cc1c(-c2ccccc2)[nH]n(-c2nc3ccccc3s2)c1=O` here?
Its Potency is inconclusive [inhibitor, partial curve].

Which Potency does the source give for `COc1c2ccoc2c(OC[C@@H](OC(C)=O)C(C)(C)O)c2oc(=O)ccc12` here?
The Potency was inconclusive [inhibitor, partial curve, poor fit].

For `Cc1cc(C2=NNC(=Nc3ccccc3)SC2)c(C)n1C`, which Potency is on record?
The Potency was inconclusive [inhibitor, single point].

Which Potency does the source give for `COc1cccc(-n2c(=O)c3sc4ccccc4c3n(CC(=O)Nc3ccccc3C)c2=O)c1` here?
Its Potency is “inactive”.

Which Potency does the source give for `COc1ccc(NC(=O)c2ccc(S(=O)(=O)N(C)c3ccccc3)cc2)cn1` here?
The Potency was inconclusive [inhibitor, single point].

With `CCCCOc1ccccc1NC(=O)c1scc2c1OCCO2` as the molecule, how does the Potency read?
The Potency was inconclusive [inhibitor, full curve, poor fit].

With `CCCCOc1ccc(Cn2c(=O)sc3ccccc32)cc1` as the molecule, how does the Potency read?
Its Potency is inconclusive [inhibitor, single point].

Which Potency does the source give for `CCc1ccc(NC(=O)c2nn(-c3ccc(OC)cc3)c(=O)c3c2c2ccccc2n3C)cc1` here?
The Potency was “inactive”.

With `COc1ccc(N2CCN(c3csc4ccccc4c3=O)CC2)cc1` as the molecule, how does the Potency read?
Its Potency is inconclusive [inhibitor, single point].

With `Cc1ccc2[nH]c(=O)c(COC(=O)C3CCCCC3)cc2c1` as the molecule, how does the Potency read?
Its Potency is “inactive”.

Which activity change, negative = growth inhibition does the source give for `CN(C)S(=O)(=O)c1cccc(NC(=S)Nc2ccc3cn[nH]c3c2)c1` here?
The activity change, negative = growth inhibition was inconclusive: -33.3% [inhibitor].

With `COc1cc(/C=C/C(=O)OCC(=O)c2ccc(OC(F)F)cc2)ccc1O` as the molecule, how does the Potency read?
The Potency was active: 14.6 µM.

For `COc1ccccc1CN1CCCC2(CCN(C(C)=O)CC2)C1`, which Potency is on record?
Its Potency is “inactive”.

For `CN(/C=C1/C(=O)CNC1=O)CCO`, which Potency is on record?
The Potency was inconclusive [inhibitor, single point].

For `Cc1ccc(Cc2c(C3CCCCC3)nc3ccc(Cl)cn23)cc1`, which Potency is on record?
The Potency was inconclusive [inhibitor, single point].

Which Potency does the source give for `OC1CCCN(Cc2c3ccccc3cc3ccccc23)C1` (centres undefined) here?
Its Potency is inconclusive [inhibitor, single point].

With `COc1ccc(C(CNC(=O)COc2cc(C)cc(C)c2)N2CCOCC2)cc1` (centres undefined) as the molecule, how does the Potency read?
Its Potency is inconclusive [inhibitor, single point].

Which Potency does the source give for `COc1ccccc1NS(=O)(=O)c1ccc(C(=O)N2CCN(c3ccccn3)CC2)cc1` here?
The Potency was active: 13 µM.

For `O=C1c2ccccc2-c2onc3c(NCCO)cc(NC4CCCCC4)c1c23`, which Potency is on record?
The Potency was inconclusive [inhibitor, single point].

For `CC(Sc1oc(-c2cccs2)nc1S(=O)(=O)c1ccccc1)c1ccccc1` (centres undefined), which Potency is on record?
The Potency was inconclusive [inhibitor, single point].

With `Cc1c(C(=O)Nc2ccc(F)cc2F)sc2nc3n(c(=O)c12)N=C(c1ccccc1)CS3` as the molecule, how does the Potency read?
Its Potency is inconclusive [inhibitor, partial curve].

With `CCOC(=O)c1c(NC(=O)C(=O)N/N=C/c2ccc(O)c(OC)c2)sc2c1CCCCC2` as the molecule, how does the Potency read?
Its Potency is active: 23.1 µM.

With `COC(=O)c1ccc(/C=N/NC(=S)NC(C)C)cc1` as the molecule, how does the Potency read?
Its Potency is inconclusive [inhibitor, single point].

With `OCCCc1cn(-c2ccccc2)c2ccccc12` as the molecule, how does the activity change, negative = growth inhibition read?
Its activity change, negative = growth inhibition is inconclusive: -32.7% [inhibitor].

For `O=C(c1cccs1)N(Cc1cc2ccccc2[nH]c1=O)c1ccccc1`, which Potency is on record?
Its Potency is active: 10.3 µM.

For `Cc1ccc(/C=N/N2C(=O)c3ccccc3NC2c2ccc(C)cc2)cc1` (centres undefined), which Potency is on record?
Its Potency is inconclusive [inhibitor, single point].

Which Potency does the source give for `CS(=O)(=O)c1ccc(-c2cccc3c2OC(CNC(=O)c2cc(C4CC4)[nH]n2)C3)cc1` (centres undefined) here?
The Potency was inconclusive [inhibitor, single point].

With `CC(C)(C)c1ccc(S(=O)(=O)N2CCC(O)(c3ccc(Cl)cc3)CC2)cc1` as the molecule, how does the Potency read?
Its Potency is active: 18.4 µM.

With `O=C(NCCC1=CCCCC1)C(=O)NCC(c1ccco1)N1CCN(c2ccccc2)CC1` (centres undefined) as the molecule, how does the Potency read?
Its Potency is active: 9.2 µM.

For `Cc1occc1C(=O)n1nnc2ccccc21`, which Potency is on record?
Its Potency is active: 20.6 µM.

Which Potency does the source give for `Cc1cc(O)ccc1NC(=S)NC(=O)c1cncc(Br)c1` here?
Its Potency is active: 16.4 µM.

With `O=C1NC2(CCCCC2)C(=O)N1Cc1ccc([N+](=O)[O-])cc1` as the molecule, how does the Potency read?
The Potency was inconclusive [inhibitor, single point].

Which Potency does the source give for `O=C1CC[C@@H](O)CCN1CC[C@H](Sc1ccccc1)c1ccccc1` here?
The Potency was inconclusive [inhibitor, partial curve].

Which Potency does the source give for `O=C1NC[C@@H](CCCCN2CCN(CCc3ccccc3)C(=O)C2=O)N(CCC2CCCCC2)C1=O` here?
Its Potency is “inactive”.
